{
  "source": "PubChem BioAssay AID1476",
  "about": "(National Center for Advancing Translational Sciences (NCATS), 2009)",
  "note": "About 4,500 (2.2%) of roughly 200,000 compounds were called active. Inconclusive means that the source gave no clear call. Such entries were picked first, then a sample of the others. Calls follow the shape of the dose curve; as a rule, active = well fitted inhibition curve with a large enough effect; inconclusive = small, poorly fitted or top-dose-only effect, or effect the other way; inactive = flat fitted curve, though single readings scatter. A potency beside an inconclusive call is a rough fit, not a confirmed value. Potency is read from the fitted curve at half-maximal effect; tags tell the direction and shape of the fitted curve.",
  "data": [
    {"target": "Cruzipain (Trypanosoma cruzi) (UniProt P25779)", "sequence (P25779 whole entry, looked up)": "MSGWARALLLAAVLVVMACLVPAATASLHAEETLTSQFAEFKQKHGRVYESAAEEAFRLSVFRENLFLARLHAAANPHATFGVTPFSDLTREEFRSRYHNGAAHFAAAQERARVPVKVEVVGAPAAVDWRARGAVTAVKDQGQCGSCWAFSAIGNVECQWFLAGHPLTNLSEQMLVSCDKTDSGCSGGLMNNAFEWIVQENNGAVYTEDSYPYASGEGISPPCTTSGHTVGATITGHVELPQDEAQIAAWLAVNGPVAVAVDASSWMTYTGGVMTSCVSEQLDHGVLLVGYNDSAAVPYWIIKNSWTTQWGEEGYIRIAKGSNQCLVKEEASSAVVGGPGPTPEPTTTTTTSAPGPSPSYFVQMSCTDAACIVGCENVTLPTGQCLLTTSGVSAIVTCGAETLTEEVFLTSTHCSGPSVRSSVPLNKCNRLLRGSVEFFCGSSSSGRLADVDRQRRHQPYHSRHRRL", "experiment": "qHTS Assay for Promiscuous and Specific Inhibitors of Cruzain (without detergent); also: nearly all actives have a fitted effect of over 40% in size;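 as to max response, negative = inhibition: plate controls were enzyme without inhibitor for no effect and buffer without enzyme for full effect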", "settings": "purified cruzain, Z-FR-AMC fluorescence, no detergent", "summary_of_the_method": "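Detergent-free condition (0.00005% Triton X-100) in acetate buffer pH 5.5 with DTT. 1.5 nM enzyme and compound were pre-mixed 15 min, then 2 uM Z-FR-AMC substrate added; reaction progress from fluorescence change between first and third reads (60 s).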", "values": [
      {"smiles": "O=C(O)CC/C=C\\CC[C@H]1[C@@H](N2CCCCC2)[C@@H](O)C[C@@H]1OCc1ccc(-c2ccccc2)cc1", "Potency": "inconclusive: 39.8 µM [activator, single point]"},
      {"smiles": "Cc1ccc(Nc2nc3ccccc3c3nncn23)cc1C", "Potency": "inconclusive: 39.8 µM [activator, single point]"},
      {"smiles": "COc1ccc(N(C)C(=O)CCS(=O)(=O)c2cccc3nsnc23)cc1", "max response, negative = inhibition": "inactive: -4.91%"},
      {"smiles": "Cc1ccc(OCc2nc3ccccc3n2Cc2ccccc2Cl)cc1", "max response, negative = inhibition": "inactive: -4.71%"},
      {"smiles": "CCCNC(=O)CCc1c(C)nc2nc(-c3cc(OC)cc(OC)c3)nn2c1C", "Potency": "inconclusive: 39.8 µM [activator, single point]"},
      {"smiles": "Cc1ccc(OCCn2cc(/C(N)=N/O)c3ccccc32)cc1C", "Potency": "inconclusive: 39.8 µM [inhibitor, single point]"},
      {"smiles": "Cc1ccc(S(=O)(=O)CC#CCOC(=O)c2ccc([N+](=O)[O-])cc2)cc1", "Potency": "active: 12.6 µM"},
      {"smiles": "Cc1cc(C)c(NC(=O)Cn2nnc(S(=O)(=O)c3ccc(C)c(C)c3)c2N)c(C)c1", "Potency": "inconclusive: 31.6 µM [inhibitor, single point]"},
      {"smiles": "CC(C(=O)N1CCN(c2ccc(Cl)cc2)CC1)c1ncc(C(F)(F)F)cc1Cl", "note": "(stereo not given)", "Potency": "inconclusive: 39.8 µM [activator, single point]"},
      {"smiles": "CCCCN(CC)c1nc(-c2ccccc2F)nc2ccccc12", "max response, negative = inhibition": "inactive: -3.09%"},
      {"smiles": "COc1ccc(C(=O)n2c(SC)nc3cc4c(cc32)OCCO4)cc1", "Potency": "inconclusive: 39.8 µM [activator, single point]"},
      {"smiles": "N#Cc1c(-c2ccco2)cc(-c2ccccn2)nc1N", "Potency": "inconclusive: 31.6 µM [activator, single point]"},
      {"smiles": "CCCCN(C(=O)CSc1nnc(-c2ccc(OC)cc2)n1C(C)C)c1c(N)n(Cc2ccccc2)c(=O)[nH]c1=O", "Potency": "inconclusive: 39.8 µM [activator, single point]"},
      {"smiles": "CCN(CC)C(=O)c1ccc(S(=O)(=O)N2CCC(c3nc4ccccc4s3)CC2)cc1", "Potency": "inconclusive: 39.8 µM [activator, single point]"},
      {"smiles": "COc1cccc(-c2cc(=O)c3cc(NC(=O)c4ccc(C)cc4)ccc3[nH]2)c1", "Potency": "inconclusive: 50.1 µM [inhibitor, single point]"},
      {"smiles": "O=C(CCc1nc(-c2ccccc2)c(-c2ccccc2)o1)OCc1ccc(Br)cc1", "Potency": "inconclusive: 39.8 µM [inhibitor, single point]"},
      {"smiles": "CCCc1c(OCC(O)COc2ccc3c(=O)cc(C(=O)O)oc3c2CCC)ccc(C(C)=O)c1O", "note": "(stereo not given)", "Potency": "inconclusive: 4.47 µM [activator, single point]"},
      {"smiles": "O=C(NCCc1ccc(Cl)cc1)c1ccc2c(c1)N(Cc1ccc(Cl)cc1)C(=O)CS2", "Potency": "inconclusive: 39.8 µM [inhibitor, single point]"},
      {"smiles": "Cc1cc(/C=C2/SC(=S)N(c3ccc([N+](=O)[O-])cc3)C2=O)c(C)n1-c1cccnc1", "Potency": "active: 15.8 µM"},
      {"smiles": "C=Cc1ccc(Cn2c(=O)n(-c3cccc(Cl)c3)c(=O)c3c4c(sc32)CN(C(C)=O)CC4)cc1", "Potency": "inconclusive: 20 µM [activator, partial curve]"},
      {"smiles": "COc1ccc(NC(=O)COC(=O)c2cc(OC)c(OC)cc2NC(=O)c2ccco2)cc1OC", "Potency": "inconclusive: 25.1 µM [activator, partial curve]"},
      {"smiles": "NC(=O)c1c(NC(=O)c2cc3ccccc3o2)sc2c1CCC2", "Potency": "inconclusive: 39.8 µM [inhibitor, single point]"},
      {"smiles": "COc1ccc(O[C@H]2C=C[C@@H](c3ccccc3)O[C@@H]2COC(=O)CC/C(C)=N/O[C@@H](C)c2cn([C@H](CO)Cc3ccccc3)nn2)cc1", "Potency": "inconclusive: 20 µM [activator, partial curve]"},
      {"smiles": "CC(C)Cc1nc2oc3c(N4CCN(CCO)CC4)ncnc3c2c2c1CCCC2", "Potency": "inconclusive: 39.8 µM [activator, single point]"},
      {"smiles": "COc1ccc2c(c1)c(=O)c(C(=O)c1ccc(F)cc1)cn2CC(=O)Nc1ccc2c(c1)OCO2", "max response, negative = inhibition": "inactive: -7.74%"},
      {"smiles": "COC(=O)c1sccc1NC(=O)c1cc(-c2cccc(C)c2)nc2ccccc12", "Potency": "active: 10 µM"},
      {"smiles": "CCCCCC(=O)Nc1ccc(N2CCN(S(C)(=O)=O)CC2)cc1", "max response, negative = inhibition": "inactive: -27.6%"},
      {"smiles": "CCc1c(C)nc2nncn2c1NCc1ccccc1", "max response, negative = inhibition": "inactive: -2.2%"},
      {"smiles": "Cc1nn(Cc2ccc(Cl)c(Cl)c2)c(C)c1NC(=O)c1sc2ccccc2c1Cl", "Potency": "active: 15.8 µM"},
      {"smiles": "COC(=O)c1c(N2C(=O)[C@H]3[C@@H](C2=O)[C@]2(C(=O)Nc4c2ccc(C)c4C)N2CCC[C@@H]32)sc(C)c1C", "Potency": "inconclusive: 39.8 µM [activator, single point]"},
      {"smiles": "Cc1nc2ccc(NC(=O)c3ccc(S(=O)(=O)N(C)c4ccccc4)cc3)cc2s1", "Potency": "inconclusive: 39.8 µM [activator, single point]"},
      {"smiles": "COc1cc(C(=O)ON=C2C=C(C)C(=O)C(C)=C2)cc(OC)c1OC", "Potency": "inconclusive: 3.16 µM [inhibitor, full curve]"},
      {"smiles": "Cc1ccc2nc(-c3cccc(NS(C)(=O)=O)c3)cc(-c3ccccc3)c2c1", "Potency": "inconclusive: 39.8 µM [activator, single point]"},
      {"smiles": "NC(=O)C1(NC(=O)[C@@H]2CC3(CC(c4cccc(NC(=O)c5cc([N+](=O)[O-])cc([N+](=O)[O-])c5)c4)=NO3)CN2C(=O)c2ccccc2)CC1", "note": "(stereo not given in full)", "Potency": "inconclusive: 20 µM [activator, partial curve]"},
      {"smiles": "CCc1ccc(NC(=O)C(C)OC(=O)c2ccc(N3CCCC3)c([N+](=O)[O-])c2)cc1", "note": "(stereo not given)", "Potency": "inconclusive: 39.8 µM [inhibitor, single point]"},
      {"smiles": "COc1ccc(Nc2c(-c3ccc(C)o3)nc3cc(C)ccn23)cc1", "max response, negative = inhibition": "inactive: -13.8%"},
      {"smiles": "N#Cc1c(N)n(CCOC(=O)c2ccc(Cl)cc2)c2nc3ccccc3nc12", "Potency": "inconclusive: 31.6 µM [activator, single point]"},
      {"smiles": "CCc1ccc(NC(=O)c2ccc3c(c2)C(=O)N(CCOC)C3Nc2ccc(CC)cc2)cc1", "note": "(stereo not given)", "Potency": "inconclusive: 39.8 µM [inhibitor, single point]"},
      {"smiles": "FC(F)(F)c1cccc(NC(=S)NNC(=S)NCc2ccccc2)c1", "Potency": "inconclusive: 39.8 µM [inhibitor, single point]"},
      {"smiles": "Cc1cc(NC(=O)c2ccc3nc(-c4ccccc4)c(-c4ccccc4)nc3c2)no1", "max response, negative = inhibition": "inactive: -21%"},
      {"smiles": "Nc1c(C(=O)NCC2CCCO2)c2nc3ccccc3nc2n1-c1ccccc1", "note": "(stereo not given)", "Potency": "inconclusive: 25.1 µM [activator, partial curve]"},
      {"smiles": "CC(=O)O[C@]1(C(C)=O)CC[C@H]2[C@@H]3C[C@H](C)C4=CC(=O)CC[C@]4(C)[C@H]3CC[C@@]21C", "Potency": "inconclusive: 39.8 µM [activator, single point]"},
      {"smiles": "C=CCN1C(=O)NC(c2ccccc2)(C(F)(F)F)S/C1=C(\\C#N)c1nnc(N2CCOCC2)n1-c1ccccc1", "note": "(stereo not given)", "Potency": "inconclusive: 25.1 µM [activator, single point]"},
      {"smiles": "COc1ccc(C(=O)NCc2ccccn2)cc1", "Potency": "inconclusive: 31.6 µM [activator, single point]"},
      {"smiles": "COc1ccc(N2CCN(C(=O)c3cc(N4C(=O)C5C6CCC(C6)C5C4=O)ccc3Cl)CC2)cc1", "note": "(stereo not given)", "Potency": "inconclusive: 25.1 µM [activator, single point]"},
      {"smiles": "O=C(c1ccc2c(c1)CCN2S(=O)(=O)c1ccc(Cl)cc1)N1CCN(c2ccc(F)cc2)CC1", "Potency": "inconclusive: 39.8 µM [inhibitor, single point]"},
      {"smiles": "O=C(Cc1cccs1)N/N=C/C(Br)=C/c1ccccc1", "Potency": "active: 15.8 µM"},
      {"smiles": "COc1ccc(/C=C2/C(=O)NC(=O)N(C3CCCCC3)C2=O)cc1CSc1ccccn1", "Potency": "inconclusive: 31.6 µM [activator, single point]"},
      {"smiles": "CCCOc1ccc(C2C(=O)N(C3CCCCCC3)CC(=O)N2CCC)cc1OC", "note": "(stereo not given)", "max response, negative = inhibition": "inactive: 13.1%"},
      {"smiles": "COc1ccccc1N1CCN(C(=O)c2cc3c(=O)n(C)c4ccccc4c3n2C)CC1", "Potency": "inconclusive: 39.8 µM [activator, single point]"},
      {"smiles": "CN(C)S(=O)(=O)c1ccc(C(=O)NCCSc2c(-c3ccc(Cl)cc3)[nH]c3ccccc23)cc1", "Potency": "inconclusive: 39.8 µM [inhibitor, single point]"},
      {"smiles": "COc1ccc(N2CCN(C(=O)CCc3c(C)nc4cc(-c5ccc(OC)cc5OC)nn4c3C)CC2)cc1", "Potency": "inconclusive: 6.31 µM [activator, single point]"},
      {"smiles": "CCOC(=O)c1c(NC(=O)c2ccccc2OCC)sc2c1CCC(CC)C2", "note": "(stereo not given)", "max response, negative = inhibition": "inactive: 2.21%"},
      {"smiles": "Nc1c(C(=O)Nc2ccc([As](=O)(O)O)cc2)cnc2nnnn12", "max response, negative = inhibition": "inactive: -1.04%"},
      {"smiles": "COC(=O)C1=C(C)Nc2nc(SCc3ccccc3)[nH]c(=O)c2C1c1cccs1", "note": "(stereo not given)", "Potency": "active: 25.1 µM"},
      {"smiles": "CCCCn1c(=O)n(CC(=O)Nc2c(CC)cccc2CC)c(=O)c2c1nc(CO)n2CCC", "Potency": "inconclusive: 39.8 µM [activator, single point]"},
      {"smiles": "Cc1cc(C)n(-c2nc(NCC(C)O)c3c4c(sc3n2)CCCC4)n1", "note": "(stereo not given)", "Potency": "inconclusive: 31.6 µM [activator, single point]"},
      {"smiles": "CS(=O)(=O)N1CCc2cc(-c3csc(NC(=O)Cc4ccccc4)n3)ccc21", "Potency": "inconclusive: 31.6 µM [inhibitor, single point]"},
      {"smiles": "COc1cccc(C(=O)Nc2ccc3oc(-c4cccc5c(Br)cccc45)nc3c2)c1", "Potency": "inconclusive: 3.98 µM [inhibitor, single point]"},
      {"smiles": "CC1CCCN(c2nc3c(c(=O)n(C)c(=O)n3C)n2CCSc2nc3ccccc3o2)C1", "note": "(stereo not given)", "Potency": "inconclusive: 39.8 µM [activator, single point]"}
    ]}
  ]
}
